Measurements taken from the supplement of paper PMC4604168 (melanoma cell lines).
The list shows a part of the results. Repeats are few or missing, and single values can be far off.

Tests used:
Test in all cases: cell count relative to DMSO control; melanoma cells; higher = more viable cells
Details in all cases: library dose: standard library concentration; 72 h
[1] = test system: SkMel28
[2] = test system: SkMel2
[3] = test system: SkMel30
[4] = test system: SkMel5
[5] = test system: UACC257
[6] = test system: UACC62
[7] = test system: WM115
[8] = test system: WM1716
[9] = test system: WM1745
[10] = test system: WM3526
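Also: cells treated in 1,536-well plates, then fixed and DAPI-stained, with nuclei counted from automated high-throughput microscope images.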

| Structure (SMILES) | cell count [1] | cell count [2] | cell count [3] | cell count [4] | cell count [5] | cell count [6] | cell count [7] | cell count [8] | cell count [9] | cell count [10] |
| --- | --- | --- | --- | --- | --- | --- | --- | --- | --- | --- |
| CC(C)C[C@H](NC(=O)[C@H](Cc1ccccc1)NC(=O)c1cnccn1)B(O)O [Bortezomib] + N.N.[Cl][Pt][Cl] [cisplatin] (first compound 0.005 µM, partner dose 8 µM) | 23.7% | 46.9% | 27.3% | 20.7% | 81.3% | 61.5% | 16.5% | 16.3% | 12.9% | 34.7% |
| C#Cc1cccc(Nc2ncnc3cc(OCCOC)c(OCCOC)cc23)c1 [erlotinib] + C/C(O)=C(\C#N)C(=O)Nc1cc(Br)ccc1Br [LFM-A13] (first compound 4 µM, partner dose 10 µM) | 62.1% | 105% | 80.7% | 63.1% | 114% | 73.3% | 91.1% | 101% | 61% | 72% |
| C[C@@H]1CCN(C(=O)CC#N)C[C@@H]1N(C)c1ncnc2[nH]ccc12 + C/C(O)=C(\C#N)C(=O)Nc1cc(Br)ccc1Br [LFM-A13] (first compound 5 µM, partner dose 10 µM) | 114% | 109% | 114% | 101% | 122% | 83.8% | 124% | 97.9% | 91.3% | 115% |
| O=C(O)C(=O)Nc1sc2c(c1C(=O)O)CCNC2 + C/C(O)=C(\C#N)C(=O)Nc1cc(Br)ccc1Br [LFM-A13] (first compound 8.33333 µM, partner dose 10 µM) | 93.9% | 111% | 104% | 77.3% | 85.5% | 127% | 92.4% | 112% | 70.8% | 88.2% |
| CN1CCN(c2ccc3nc(-c4c(N)c5c(F)cccc5[nH]c4=O)[nH]c3c2)CC1 [Dovitinib] + C[As](C)SC[C@H](NC(=O)CC[C@H](N)C(=O)O)C(=O)NCC(=O)O [Darinaparsin] (first compound 0.5 µM, partner dose 2 µM) | 62% | 58.8% | 82.8% | 65.9% | 90.8% | 61.1% | 50.9% | 65.5% | 52.9% | 60.3% |
| Cc1nc(Nc2ncc(C(=O)Nc3c(C)cccc3Cl)s2)cc(N2CCN(CCO)CC2)n1 [dasatanib] + O=C(Oc1ccc([N+](=O)[O-])cc1)N1CCC(C(O)(c2ccc3c(c2)OCO3)c2ccc3c(c2)OCO3)CC1 [JZL184] (first compound 0.02 µM, partner dose 5 µM) | 102% | 91.6% | 83.2% | 42.4% | 88.3% | 80.4% | 61.6% | 40.8% | 38.5% | 80.1% |
| Cc1nc(Nc2ncc(C(=O)Nc3c(C)cccc3Cl)s2)cc(N2CCN(CCO)CC2)n1 [dasatanib] + Cc1cc(SCc2sc(-c3ccc(C(F)(F)F)c(F)c3)nc2C)ccc1OCC(=O)O [GW0742] (first compound 0.02 µM, partner dose 10 µM) | 67.8% | 83.9% | 97.7% | 74% | 92.8% | 116% | 62% | 73.4% | 42.9% | 93.9% |
| Cc1cc(Nc2cc(N3CCN(C)CC3)nc(Sc3ccc(NC(=O)C4CC4)cc3)n2)n[nH]1 [Tozasertib] + N.N.[Cl][Pt][Cl] [cisplatin] (first compound 0.03 µM, partner dose 8 µM) | 72.3% | 99.2% | 103% | 89.5% | 88.9% | 83.3% | 99.7% | 79.3% | 80.1% | 78% |
| COc1cc2ncnc(Nc3ccc(Oc4ccccc4)cc3)c2cc1OC + O=C(Oc1ccc([N+](=O)[O-])cc1)N1CCC(C(O)(c2ccc3c(c2)OCO3)c2ccc3c(c2)OCO3)CC1 [JZL184] (first compound 10 µM, partner dose 5 µM) | 76.4% | 91.9% | 75.3% | 61.3% | 84.3% | 80.1% | 82.9% | 84.3% | 73% | 70.9% |
| Nc1ccn([C@@H]2O[C@H](CO)[C@@H](O)C2(F)F)c(=O)n1 [gemcitabine] + C[As](C)SC[C@H](NC(=O)CC[C@H](N)C(=O)O)C(=O)NCC(=O)O [Darinaparsin] (first compound 0.002 µM, partner dose 2 µM) | 97.8% | 84.6% | 83.9% | 57.2% | 90.8% | 88.2% | 92.6% | 51.4% | 47.4% | 75.3% |
| Oc1cc(-c2nc(-c3ccccc3)[nH]c2-c2ccncc2)ccc1Cl + C/C(O)=C(\C#N)C(=O)Nc1cc(Br)ccc1Br [LFM-A13] (first compound 1 µM, partner dose 10 µM) | 35.9% | 38.7% | 84.1% | 64.8% | 101% | 64.5% | 48.1% | 78% | 65.1% | 49.9% |
| Cc1cc(Nc2cc(N3CCN(C)CC3)nc(Sc3ccc(NC(=O)C4CC4)cc3)n2)n[nH]1 [Tozasertib] + C[C@]12O[C@H](C[C@]1(O)CO)n1c3ccccc3c3c4c(c5c6ccccc6n2c5c31)CNC4=O [Lestaurtinib] (first compound 0.03 µM, partner dose 0.02 µM) | 40.3% | 91.9% | 71.6% | 48.3% | 103% | 62.4% | 57.7% | 83.4% | 63.2% | 66.2% |
| COCC[n+]1c2c(n(Cc3cnccn3)c1C)C(=O)c1ccccc1C2=O + O=C(Oc1ccc([N+](=O)[O-])cc1)N1CCC(C(O)(c2ccc3c(c2)OCO3)c2ccc3c(c2)OCO3)CC1 [JZL184] (first compound 0.002 µM, partner dose 5 µM) | 37.7% |  | 44.5% | 30.4% | 12.4% | 61.7% | 54.4% | 52.8% | 62.1% | 22.3% |
| COc1ccc(COc2ccc(Cc3cnc(N)nc3N)cc2OC)cc1 + Cc1cc(SCc2sc(-c3ccc(C(F)(F)F)c(F)c3)nc2C)ccc1OCC(=O)O [GW0742] (first compound 5 µM, partner dose 10 µM) | 104% | 90.4% | 89.9% | 72.9% | 71% | 102% | 87.5% | 82.9% | 98.1% | 100% |
| Cc1nc(Nc2ncc(C(=O)Nc3c(C)cccc3Cl)s2)cc(N2CCN(CCO)CC2)n1 [dasatanib] + C/C(O)=C(\C#N)C(=O)Nc1cc(Br)ccc1Br [LFM-A13] (first compound 0.02 µM, partner dose 10 µM) | 102% | 91% | 91.3% | 65.3% | 80.8% | 100% | 64.4% | 55.5% | 35.1% | 77.6% |
| Cn1c(Nc2ccc(C(F)(F)F)cc2)nc2cc(Oc3ccnc(-c4ncc(C(F)(F)F)[nH]4)c3)ccc21 + Cc1cc(SCc2sc(-c3ccc(C(F)(F)F)c(F)c3)nc2C)ccc1OCC(=O)O [GW0742] (first compound 0.4 µM, partner dose 10 µM) | 38.7% | 41.3% | 72.3% | 38.4% | 139% | 114% | 112% | 87.3% | 68.3% | 43.5% |
| CO[C@H]1C[C@@H]2CC[C@@H](C)[C@@](O)(O2)C(=O)C(=O)N2CCCC[C@H]2C(=O)O[C@H]([C@H](C)C[C@@H]2CC[C@@H](OCCO)[C@H](OC)C2)CC(=O)[C@H](C)/C=C(\C)[C@@H](O)[C@@H](OC)C(=O)[C@H](C)C[C@H](C)/C=C/C=C/C=C/1C [everolimus] + C/C(O)=C(\C#N)C(=O)Nc1cc(Br)ccc1Br [LFM-A13] (first compound 0.1 µM, partner dose 10 µM) | 42.6% | 68.4% | 61.3% | 52.5% | 105% | 86.9% | 77.3% | 87.3% |  | 81.3% |
| Cc1cc(Nc2cc(N3CCN(C)CC3)nc(Sc3ccc(NC(=O)C4CC4)cc3)n2)n[nH]1 [Tozasertib] + O=C(Oc1ccc([N+](=O)[O-])cc1)N1CCC(C(O)(c2ccc3c(c2)OCO3)c2ccc3c(c2)OCO3)CC1 [JZL184] (first compound 0.03 µM, partner dose 5 µM) | 73.3% | 99.9% | 120% | 68.4% | 81.2% | 71.9% | 52.1% | 71.2% |  | 95.2% |
| CN1CCN(c2ccc3nc(-c4c(N)c5c(F)cccc5[nH]c4=O)[nH]c3c2)CC1 [Dovitinib] + Cc1cc(SCc2sc(-c3ccc(C(F)(F)F)c(F)c3)nc2C)ccc1OCC(=O)O [GW0742] (first compound 0.5 µM, partner dose 10 µM) | 90.1% | 83.4% | 113% | 91% | 94.2% | 84.6% | 91.7% | 93.3% |  | 111% |
| C=CCn1c(=O)c2cnc(Nc3ccc(N4CCN(C)CC4)cc3)nc2n1-c1cccc(C(C)(C)O)n1 + C/C(O)=C(\C#N)C(=O)Nc1cc(Br)ccc1Br [LFM-A13] (first compound 0.1 µM, partner dose 10 µM) | 40.1% | 83.7% | 70.1% | 51.8% | 92.8% | 53.4% | 70.9% | 91.8% | 50% | 69.2% |
| Nc1ccn([C@@H]2O[C@H](CO)[C@@H](O)C2(F)F)c(=O)n1 [gemcitabine] + C/C(O)=C(\C#N)C(=O)Nc1cc(Br)ccc1Br [LFM-A13] (first compound 0.002 µM, partner dose 10 µM) | 82.6% | 91.6% | 78.8% | 88.4% | 106% | 112% | 94.3% | 75.7% |  | 95.2% |
| CC(C)C[C@H](NC(=O)[C@H](Cc1ccccc1)NC(=O)c1cnccn1)B(O)O [Bortezomib] + O=C(Oc1ccc([N+](=O)[O-])cc1)N1CCC(C(O)(c2ccc3c(c2)OCO3)c2ccc3c(c2)OCO3)CC1 [JZL184] (first compound 0.005 µM, partner dose 5 µM) | 28.9% | 36.5% | 18% | 20.8% | 67.8% | 43.7% | 19.4% | 18.2% |  | 30.6% |
